A number of entries come with more than one value. The list is limited to them. There may be further records. Results that share an entry are repeated measurements in other runs, samples, wells, individuals or studies.
Columns and labels:
U2OS = test: Multiplex assay against U2OS; format: toxicity, cell-based; details: human
Procedure, shortened: (§1)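 Hoechst33342, BioTracker Green Microtubule Cytoskeleton Dye, MitoTracker Red and Annexin V Alexa Fluor 680 were added to live cells at seeding, and imaging on a CQ1 microscope at 37°C and 5% CO2 followed compound addition. Gating by CellPathfinder machine learning separated cells into Hoechst high-intensity objects or normal cells, then normal cells into healthy, pyknosed or fragmented nuclei, then pyknosed cells into mitotic or apoptotic. Per cents of healthy-nucleus cells are reported for the tubulin, mitochondrial-mass and membrane-permeability phenotypes.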

Fibroblast = test: Multiplex assay against human fibroblast; format: toxicity, cell-based; procedure, shortened: as §1
[1] = 24 h, 1 µM, compound concentration 1 uM
[2] = 24 h, 10 µM, compound concentration 10 uM
[3] = 48 h, 1 µM, compound concentration 1 uM
[4] = 12 h, 1 µM, compound concentration 1 uM
[5] = 12 h, 10 µM, compound concentration 10 uM
[6] = 48 h, 10 µM, compound concentration 10 uM

**Q.** How did the “Population Mitotic Cells (%)” value (U2OS; [1]) turn out when Cc1cc(NC(=O)NCCN2CCC(O)(Cc3ccccc3)CC2)c2ccccc2n1 [PALOSURAN] was run?
**A.** Its value is 5% and 33%.

**Q.** What about the “Population Mitotic Cells (%)” value (U2OS; [2]) of the same compound?
**A.** Its value is 8% and 25%.

**Q.** What about the “Population Mitotic Cells (%)” value (U2OS; [3]) of the same compound?
**A.** Its value is 3% and 16%.

**Q.** What about the “Population Mitochondria Different-Phenotype (%)” value (Fibroblast; [4]) of the same compound?
**A.** The value was 1% and 13%.

**Q.** What about the “Population Membrane Permeable-Phenotype (%)” value (Fibroblast; [1]) of the same compound?
**A.** Its value is 1% and 14%.

**Q.** And the “Population Tubulin-Different-Phenotype (%)” value (Fibroblast; [1])?
**A.** Its value is 17% and 62%.

**Q.** What about the “Population Mitochondria Different-Phenotype (%)” value (Fibroblast; [3]) of the same compound?
**A.** Its value is 2% and 14%.

**Q.** And the “Population Tubulin-Different-Phenotype (%)” value (Fibroblast; [3])?
**A.** Its value is 15% and 61%.

**Q.** C[C@H](NC(=O)c1c(C(F)F)nn(C)c1Oc1cccc(C(F)(F)F)c1)c1ccc(C(=O)O)cc1 [PALUPIPRANT] was tested. Which “Population Mitotic Cells (%)” value (U2OS; [4]) did it give?
**A.** Its value is 39% and 8%.

**Q.** And the “Population Fragmented Nuclei (%)” value (Fibroblast; [5])?
**A.** The value was 13% and 42%.

**Q.** And the “Population Hoechst High Intensity Objects (%)” value (Fibroblast; [5])?
**A.** The value was 2% and 14%.

**Q.** What about the “Population Membrane Permeable-Phenotype (%)” value (Fibroblast; [5]) of the same compound?
**A.** The value was 2% and 13%.

**Q.** And the “Population Tubulin-Different-Phenotype (%)” value (Fibroblast; [1])?
**A.** Its value is 15% and 51%.

**Q.** What about the “Population Membrane Permeable-Phenotype (%)” value (Fibroblast; [2]) of the same compound?
**A.** Its value is 2% and 13%.

**Q.** Which “Population Mitotic Cells (%)” value (U2OS; [4]) does the source give for Cc1cccc(NC(=O)CN2CCC(c3ccccn3)CC2)c1.Cl.Cl here?
**A.** The value was 9% and 42%.

**Q.** And the “Population Mitotic Cells (%)” value (U2OS; [3])?
**A.** The value was 17% and 5%.

**Q.** What about the “Population Mitotic Cells (%)” value (U2OS; [6]) of the same compound?
**A.** The value was 3% and 16%.

**Q.** What about the “Population Fragmented Nuclei (%)” value (Fibroblast; [5]) of the same compound?
**A.** Its value is 8% and 45%.

**Q.** And the “Population Fragmented Nuclei (%)” value (Fibroblast; [2])?
**A.** The value was 11% and 45%.

**Q.** What about the “Population Pyknosed Nuclei (%)” value (Fibroblast; [2]) of the same compound?
**A.** Its value is 6% and 20%.

**Q.** And the “Population Fragmented Nuclei (%)” value (Fibroblast; [6])?
**A.** The value was 17% and 54%.

**Q.** And the “Population Mitochondria Different-Phenotype (%)” value (Fibroblast; [6])?
**A.** Its value is 5% and 16%.

**Q.** And the “Population Mitotic Cells (%)” value (Fibroblast; [6])?
**A.** The value was 23% and 71%.

**Q.** How did the “Population Tubulin-Different-Phenotype (%)” value (U2OS; [5]) turn out when CC(C)C[C@H](CO)Nc1nc(S[C@@H](C)c2ccccc2)nc2nc(N)sc12 [AZD-8797] was run?
**A.** Its value is 20% and 6%.

**Q.** What about the “Population Pyknosed Nuclei (%)” value (U2OS; [2]) of the same compound?
**A.** Its value is 21% and 6%.

**Q.** What about the “Population Membrane Permeable-Phenotype (%)” value (Fibroblast; [4]) of the same compound?
**A.** Its value is 3% and 16%.

**Q.** What about the “Population Mitochondria Different-Phenotype (%)” value (Fibroblast; [5]) of the same compound?
**A.** The value was 6% and 27%.

**Q.** And the “Population Membrane Permeable-Phenotype (%)” value (Fibroblast; [1])?
**A.** Its value is 1% and 17%.

**Q.** And the “Population Tubulin-Different-Phenotype (%)” value (Fibroblast; [3])?
**A.** The value was 11% and 54%.

**Q.** Which results are given for Cc1cnc(-c2cc(N3CCN(C(=O)CCS(C)(=O)=O)CC3)ncc2Cl)c(C)c1?
**A.** Population Membrane Permeable-Phenotype (%) (U2OS; [5]): 4% and 20%; Population Tubulin-Different-Phenotype (%) (U2OS; [5]): 1% and 15%; Population Membrane Permeable-Phenotype (%) (U2OS; [2]): 4% and 18%; Population Mitotic Cells (%) (U2OS; [3]): 21% and 5%; Total Cell Count (U2OS; [6]): 485 and 141; Population Fragmented Nuclei (%) (Fibroblast; [1]): 10% and 35%

**Q.** For Cc1ccccc1C(=O)Nc1ccc(C(=O)N2CCCC(N(C)C)c3ccccc32)cc1.Cl (stereo unspecified), which “Population Mitochondria Different-Phenotype (%)” value (U2OS; [6]) is on record?
**A.** The value was 8% and 30%.

**Q.** What about the “Population Mitotic Cells (%)” value (Fibroblast; [6]) of the same compound?
**A.** The value was 8% and 26%.

**Q.** What does the source list for COC(c1ccccc1)(c1ccccc1)[C@H](Oc1nc(C)cc(C)n1)C(=O)O [AMBRISENTAN]?
**A.** Population Mitotic Cells (%) (U2OS; [5]): 38% and 0%; Population Fragmented Nuclei (%) (Fibroblast; [5]): 8% and 39%; Population Fragmented Nuclei (%) (Fibroblast; [2]): 12% and 46%; Population Fragmented Nuclei (%) (Fibroblast; [6]): 14% and 50%

**Q.** For CC(C)(C)c1cc(NC(=O)Nc2ccc(-c3cn4c(n3)sc3cc(OCCN5CCOCC5)ccc34)cc2)no1 [QUIZARTINIB], which “Population Fragmented Nuclei (%)” value (U2OS; [2]) is on record?
**A.** The value was 34% and 10%.

**Q.** What about the “Population Mitochondria Different-Phenotype (%)” value (Fibroblast; [6]) of the same compound?
**A.** The value was 25% and 6%.

**Q.** COc1cc(OC2CCN(C(C)=O)CC2)ccc1C(=O)N1CCC(N2C(=O)OCc3ccccc32)CC1 was tested. Which “Population Pyknosed Nuclei (%)” value (U2OS; [6]) did it give?
**A.** The value was 14% and 3%.

**Q.** And the “Population Fragmented Nuclei (%)” value (Fibroblast; [5])?
**A.** Its value is 10% and 32%.

**Q.** What about the “Population Fragmented Nuclei (%)” value (Fibroblast; [6]) of the same compound?
**A.** The value was 10% and 36%.

— ChEMBL document CHEMBL5724801, “EUbOPEN Chemogenomics Library - Multiplex” (2024)
